Source: PubChem BioAssay AID686979 (National Center for Advancing Translational Sciences (NCATS), 2013)
Several values for one entry are separate records, joined by “and”; a condition that tells them apart may be missing. Equal values may be shown once. The whole screen tested about 420,000 compounds, of which about 50,000 (12%) were called active. The inconclusive results got no clear call from the source; some entries with a clear call stand among them for comparison. The call rests on the fitted dose curve; in most records, active means well fitted inhibition curve with a large enough effect; inconclusive means small, poorly fitted or top-dose-only effect; inactive means flat fitted curve, though single readings scatter. Where the call is inconclusive, the potency comes from a doubtful curve fit. Some compounds were tested as several samples or in several runs, with calls that do not always agree.

experiment: qHTS for Inhibitors of human tyrosyl-DNA phosphodiesterase 1 (TDP1): qHTS in cells in presence of CPT; conditions: chicken DT40 Tdp1-/-;hTDP1 cells + 20 nM CPT, ATP luminescence, 48 h; activity change, negative = growth inhibition: at 46.2 µM (top of the series) unless noted; further: nearly all actives have a fitted effect of over 55% in size
Procedure, shortened: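 Cell growth measured by CellTiter-Glo luminescence after a minimum 48 h, 37 C compound exposure with 20 nM CPT in Tdp1-knockout DT40 cells stably expressing hTDP1, seeded 400/well; qHTS titration format.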
On the % scale 0 is the no-effect control and ±100 the full control effect; potency means the concentration at half of the fitted maximal effect; tags describe the fitted curve by direction and shape.

Compound | Potency | activity change, negative = growth inhibition
Clc1ccccc1/C=C/C=N/Nc1nc(N2CCOCC2)nc(N2CCOCC2)n1 | active: 23.1 µM | –
c1ccc(-c2cccc(N3CC[C@@]4(CCCNC4)C3)c2)cc1 | active: 8.2 µM | –
CC(=O)N1CC(=O)N=C1SCC(=O)Nc1nc(C)c(-c2ccccc2)s1 | active: 2.91 µM | –
O=C(/C=C/c1ccc2c(c1)OCO2)c1ccc(F)cc1 | inconclusive: 29.1 µM [inhibitor, single point] | –
CCC(=O)NC(=S)Nc1ccc(NC(=O)COc2ccc(Cl)c(C)c2)cc1 | active: 13 µM | –
Cc1cccc(N(C)c2ccc3cc(S(=O)(=O)N4CCCC4)ccc3n2)c1 | active: 16.4 µM | –
COc1cccc(-n2cnnc2SCC(=O)NC2CC2)c1 | – | inactive: 4.05%
COC(=O)c1ccc2nc(-c3cccc(Cl)c3)c(Cc3cccc(Cl)c3)n2c1 | active: 4.61 µM | –
O=C(c1cc(NC(=O)C23CC4CC(CC(C4)C2)C3)cc(NC(=O)C23CC4CC(CC(C4)C2)C3)c1)N1CCCCC1 | inconclusive: 14.6 µM [inhibitor, partial curve] | –
Cc1ccccc1CNC(=O)c1ccccc1 | – | inconclusive: -33.7% [inhibitor]
CC(C)NC(=O)N1CC2(CCN(S(=O)(=O)c3ccccc3)CC2)C1 | – | inactive: -1.33%
CCCCN1C(=N)N([C@@H](CCC)CN2CCC[C@H]2CN2C(N)=NC[C@H]2CC(C)C)C[C@H]1Cc1ccccc1 | inconclusive: 29.1 µM [inhibitor, single point] | –
Cc1ccc(S(=O)(=O)N2CCN(c3nc(-c4cccs4)nc4ncccc34)CC2)cc1 | inconclusive: 22.4 µM [inhibitor, single point] | –
Cc1nonc1OCC(C)(COc1nonc1C)NC(=O)c1ccc(Cl)cc1 | – | inconclusive: -30.1% [inhibitor]
CCC(CC)C(=O)c1c[nH]c(C(=O)NCCc2ccccn2)c1 | inconclusive: 29.1 µM [inhibitor, single point] | –
Nc1c2c(nn1-c1ccc(F)cc1)CSC2 | – | inactive: 20.4%
Cc1ccc(OCC(=O)N2N=C(c3cccnc3)CC2(O)C(F)(F)F)cc1C (configuration not stated) | active: 16.4 µM | –
O=C(CCCCCn1c(=O)[nH]c2ccccc2c1=O)NCc1ccccc1 | – | inactive: -21.2%
COC(=O)c1ccc(/C=N/OCC(=O)NCc2ccc(F)cc2)cc1 | – | inactive: -28.2%
O=[N+]([O-])c1ccc(/C=C/c2ccc3ccccc3n2)cc1 | inconclusive: 5.8 µM [inhibitor, full curve] | –
Cc1ccc(C)c(NC(=O)CSC2=Nc3ccccc3N=C(c3ccc(F)cc3)C2)c1 | inconclusive: 20.6 µM [inhibitor, single point] | –
CCOC(=O)c1cc(S(=O)(=O)N2CCN(c3ccc(C)cc3C)CC2)[nH]n1 | active: 9.2 µM | –
C[C@H](NS(=O)(=O)c1ccc2c(c1)OCCCO2)C(=O)N1CCN(c2ccc(F)cc2)CC1 | inconclusive: 29.1 µM [inhibitor, single point] | –
Cc1cc(C)c(S(=O)(=O)N2CCN(C(=O)C3COc4ccccc4O3)CC2)c(C)c1 (configuration not stated) | active: 13 µM | –

Compound | Potency | activity change, negative = growth inhibition
COc1cc(-c2nnc(SCC3(c4ccc(Br)cc4)OCCO3)o2)cc(OC)c1OC | active: 16.4 µM | –
O=C(c1ccc(Cl)cc1)N(Cc1ccccc1F)N1C(=O)CCCC1=O | – | inactive: 0.0025%
COc1ccc(N2CCN(c3oc(COc4ccccc4)nc3C#N)CC2)cc1 | inconclusive: 14.6 µM [inhibitor, partial curve] | –
Cc1ccc(-c2nnc3c4ccccc4c(C)nn23)cc1NC(=O)c1ccccc1Cl | – | inactive: 3.37%
OCCCNc1cc(-c2ccccc2)nc2cc(-c3ccc(F)cc3)nn12 | active: 8.2 µM | –
COCCN(C(=O)C(C)C)c1nnc(-c2ccc(C)cc2)s1 | inconclusive: 29.1 µM [inhibitor, single point] | –
O=C(NCC(c1cccs1)N1CCOCC1)c1ccc(Cl)c([N+](=O)[O-])c1 (configuration not stated) | inconclusive: 23.1 µM [inhibitor, single point] | –
COc1ccc(NC(=O)[C@H](NC(=O)[C@@H]2Cc3ccccc3CN2)c2ccccc2)cc1 | – | inactive: -24.6%
COc1ccc(NC(=O)CN2CCC(Cc3ccccc3)CC2)cc1S(=O)(=O)N1CCOCC1 | inconclusive: 23.1 µM [inhibitor, single point] | –
CCOC(=O)c1c(NC(=O)CSc2nnc(Cc3ccccc3)o2)sc(C)c1C | inconclusive: 29.1 µM [inhibitor, single point] | –
O=C(C[C@@H]1NS(=O)(=O)OC2CCCCC21)c1ccccc1 (some centres not stated) | – | inactive: -2.72%
CCN1C/C(=C\c2cc(OC)c(OC)c(OC)c2)C2=NN(c3ccccc3)C(c3cc(OC)c(OC)c(OC)c3)C2C1 (configuration not stated) | active: 6.51 µM | –
N#Cc1c2n(c3c(=O)n(CC(=O)c4ccc(Br)cc4)cnc13)CCCC2 | inconclusive: 29.1 µM [inhibitor, single point] | –
CC(C)OC(=O)N(C)C[C@H]1OCc2cn(nn2)CCCC(=O)N([C@H](C)CO)C[C@@H]1C | – | inactive: -6.71%
Brc1ccc(CN2CC[C@H]3C=CCc4cccc(c43)C2)cc1 | active: 14.1 µM | –
CN(C)c1ccc(NC(=O)Cn2cc(S(=O)(=O)Cc3cccc(Cl)c3)c3ccccc32)cc1 | inconclusive: 9.2 µM [inhibitor, partial curve] | –
Cc1cc(C)c(O)c(-c2cc(C(=O)Nc3cccnc3)[nH]n2)c1 | inconclusive: 29.1 µM [inhibitor, single point] | –
O=C(CCCOc1ccccc1)Nc1ccc(Cl)cn1 | – | inactive: -5.37%
COc1cc(Cn2c3ccc(NC(=O)CCc4ccccc4)cc3c(=O)n2C)ccc1F | active: 6.51 µM | –
COc1ccc2[nH]c(=O)c(-c3nnn(-c4ccccc4)n3)cc2c1 | inconclusive: 25.9 µM [inhibitor, single point] | –
CCCCSc1oc(-c2ccco2)nc1S(=O)(=O)c1ccccc1 | inconclusive: 29.1 µM [inhibitor, single point] | –
CC1(C(=O)NS(=O)(=O)c2ccc(C#N)cc2)CCN1C(=O)Cc1ccc(-c2ccccc2)cc1 (configuration not stated) | – | inactive: 1.2%
Cc1ccc(C2C(C#N)=C(N)SC(N)=C2C#N)cc1 | inconclusive: 18.4 µM [inhibitor, single point] | –
O=C(COC(=O)c1cccc(Cl)c1)Nc1cc(Cl)ccc1Oc1ccccc1 | inconclusive: 29.1 µM [inhibitor, single point] | –

Compound | Potency | activity change, negative = growth inhibition
CC(=O)c1cc(-c2ccccc2)n(CCC(=O)Nc2ccc(C)cc2C)c1C | – | inconclusive: -30.2% [inhibitor]
Cc1ccc(-c2cc(N)n[nH]2)cc1 | inconclusive: 3.66 µM [inhibitor, full curve, poor fit] | –
COC(=O)c1c(NC(=O)Nc2ccc(Cl)cc2)sc(C)c1C | inconclusive: 20.6 µM [inhibitor, partial curve] and inconclusive: 29.1 µM [inhibitor, single point] | –
COc1ccccc1CNC(=O)CCC1N=C2c3ccccc3N=C(SCc3ccc(C)cc3)N2C1=O (configuration not stated) | inconclusive: 29.1 µM [inhibitor, single point] | –
O=C1C=CN2CCOCC2C1 (configuration not stated) | – | inactive: 5.07%
CCc1nnc(NC(=O)CSc2nnc(C3CC3)n2C)s1 | – | inactive: -0.401%
CC(C)c1ccc(/C=N/NC(=O)c2cc(-c3cccc([N+](=O)[O-])c3)n[nH]2)cc1 | inconclusive: 16.4 µM [inhibitor, partial curve, poor fit] | –
CCC(=O)NC(c1ccc(C)cc1)c1cc([N+](=O)[O-])c2cccnc2c1O (configuration not stated) | inconclusive: 20.6 µM [inhibitor, single point] | –
Cc1cc(C(=O)NCc2ccc(Cl)cc2)c2c(C)nn(-c3ccccc3)c2n1 | – | inactive: -2.27%
CCOC(=O)c1cnc2ccc(C(=O)OC)cc2c1Nc1cccc(C(=O)O)c1 | – | inactive: 20.3%
CCCS(=O)(=O)c1c(S(=O)(=O)CCC)c2c3ccccc3ccn2c1C(=O)OC | inconclusive: 25.9 µM [inhibitor, single point] | –
OCC[C@H]1C[C@@H](O)[C@H](O)[C@]2(OCCc3ccccc32)O1 | – | inactive: 7.11%
Cc1ccccc1N=C1NN=C(c2ccccc2F)CS1 | inconclusive: 18.4 µM [inhibitor, single point] | –
Cc1cc2oc(C(=O)Nc3c(C)n(C)n(-c4ccccc4)c3=O)c(C)c2cc1C | inconclusive: 25.9 µM [inhibitor, single point] | –
CC(C(=O)Nc1ccc2c(c1)OCCO2)N(C)Cc1c(F)cccc1Cl (configuration not stated) | inconclusive: 23.1 µM [inhibitor, single point] | –
CCOC(=O)C1=C(CS(=O)(=O)c2ccccc2)NC(=O)NC1c1ccccc1OC (configuration not stated) | inconclusive: 32.6 µM [inhibitor, partial curve, poor fit] | –
Cc1cc(N2C(=O)C(O)=C(C(=O)c3ccc(C)o3)C2c2cccc(Oc3ccccc3)c2)no1 (configuration not stated) | inconclusive: 32.6 µM [inhibitor, single point] | –
Cc1noc(C)c1COC(=O)c1cccc(S(=O)(=O)N2c3ccccc3CC2C)c1 (configuration not stated) | inconclusive: 16.4 µM [inhibitor, single point] | –
CC1CCN(C(=O)c2ccc(N3C(=O)c4ccccc4C3=O)cc2)CC1 | – | inactive: 1.93%
CC(NC(=O)Nc1ccc(F)cc1)c1ccc2c(c1)OCO2 (configuration not stated) | – | inactive: -25%
COc1cc(CC(=O)NCc2cccs2)cc(OC)c1OC | inconclusive: 25.9 µM [inhibitor, partial curve, poor fit] | –
CCC(C)Cn1cnc2c(Sc3c([N+](=O)[O-])ncn3C)nc(N)nc21 (configuration not stated) | active: 16.4 µM | –
Clc1cccc(Cl)c1/C=N/Nc1c(Cl)cncc1Cl | active: 2.06 µM | –
CCOc1cc(N2CCOCC2)c(OCC)cc1NC(=O)c1ccc(OCc2c(C)noc2C)c(OC)c1 | active: 14.6 µM | –
